Among the data in the supplement of paper PMC4967469 are AUC and IC50 values, retold here.

One may read the IC50 as the concentration needed to halve the response being measured.

IC50 is the fitted dose that halves viability relative to control wells, and lower means more sensitive; where the fit passes the top or lowest dose, that dose stands as a limit. For AUC the same curve is integrated over the 256-fold range of doses and scaled to a fraction: 1 means no effect, lower means more sensitive. Any top dose called inferred was calculated from the reported fits. Some results are limits rather than exact numbers.

Compound in this test: Cc1ccc(-c2c(C(=O)CF)n(CCCO)c3ncnc(N)c23)cc1 [FMK]
Description: Viability of human cancer cell lines after 72 h of drug (GDSC screen). The conditions noted are these: top dose inferred. How it is done: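 Human cancer cell lines in 384-well plates, medium with 10% serum, drug for 72 h over a 256-fold dose range (nine 2-fold or five 4-fold steps up to the top dose). Adherent lines were fixed and stained with the nucleic acid dye Syto60, suspension lines read with resazurin; signal relative to control wells, capped at 0 and 100%. One two-parameter sigmoid per drug and line, fitted in a mixed model over all curves with the slope shared within a line.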
With “DK-MG (glioma, adherent, top dose 20 µM)”, the AUC amounted to 0.978 and the half-maximal inhibitory concentration (IC50) is over 20 µM.
“DMS-53 (small cell lung carcinoma, adherent, top dose 20 µM)”: the AUC stood at 0.988 and the IC50 is over 20 µM.
Consider “DMS-79 (small cell lung carcinoma, suspension, top dose 20 µM)”, for which the AUC was 0.981 and the half-inhibitory concentration (IC50) is over 20 µM.
On to “DMS-114 (small cell lung carcinoma, adherent, top dose 20 µM)”, for which the AUC came to 0.981 and the IC50 is over 20 µM.
As for “DMS-273 (small cell lung carcinoma, adherent, top dose 20 µM)”, the AUC came to 0.984 and the IC50 is over 20 µM.
Taken in the same sequence, the figures for “DND-41 (T-cell leukaemia, suspension, top dose 20 µM)” were 0.926 and over 20 µM.
Take “DU-4475 (breast, suspension, top dose 20 µM)”: the AUC is 0.977 and the IC50 was over 20 µM.
Consider “Daoy (medulloblastoma, adherent, top dose 20 µM)”, for which the AUC was 0.979 and the IC50 was over 20 µM.
As for “Daudi (Burkitt lymphoma, suspension, top dose 20 µM)”, the AUC worked out at 0.99 and the IC50 was over 20 µM.
Taken in the same sequence, the figures for “Detroit562 (head and neck, adherent, top dose 20 µM)” were 0.983 and over 20 µM.
Take “DoTc2-4510 (cervix, adherent, top dose 20 µM)”: the AUC stood at 0.983 and the IC50 was over 20 µM.
Take “EB2 (Burkitt lymphoma, suspension, top dose 20 µM)”: the AUC turned out to be 0.912 and the IC50 is over 20 µM.
As for “EB-3 (Burkitt lymphoma, suspension, top dose 20 µM)”, the AUC worked out at 0.94 and the IC50 is over 20 µM.
Take “EBC-1 (lung squamous cell carcinoma, adherent, top dose 20 µM)”: the AUC was 0.978 and the IC50 is over 20 µM.
As for “EC-GI-10 (oesophagus, adherent, top dose 20 µM)”, the AUC stood at 0.989 and the concentration for half-maximal inhibition (IC50) was over 20 µM.
Taken in the same sequence, the figures for “ECC10 (stomach, suspension, top dose 20 µM)” were 0.984 and over 20 µM.
For the cell line “EFM-19 (breast, adherent, top dose 20 µM)”, the AUC came out at 0.977 and the IC50 was over 20 µM.
For “EFM-192A (breast, adherent, top dose 20 µM)”, the AUC stood at 0.983 and the IC50 is over 20 µM.
As for “EFO-21 (ovary, adherent, top dose 20 µM)”, the AUC stood at 0.95 and the IC50 was over 20 µM.
Regarding “EFO-27 (ovary, adherent, top dose 20 µM)”, the AUC is 0.943 and the IC50 is over 20 µM.
Consider “EGI-1 (biliary tract, adherent, top dose 20 µM)”, for which the AUC is 0.952 and the IC50 was over 20 µM.
For the cell line “EJM (lymphoid neoplasm, semi-adherent, top dose 20 µM)”, the AUC is 0.988 and the 50% inhibitory concentration (IC50) is over 20 µM.
In the case of “EKVX (lung adenocarcinoma, adherent, top dose 20 µM)”, the AUC turned out to be 0.943 and the IC50 is over 20 µM.
For “EM-2 (chronic myeloid leukaemia, suspension, top dose 20 µM)”, the AUC was determined as 0.947 and the IC50 is over 20 µM.
For “EN (endometrium, adherent, top dose 20 µM)”, the AUC came out at 0.983 and the IC50 is over 20 µM.
Taken in the same sequence, the figures for “EPLC-272H (lung squamous cell carcinoma, adherent, top dose 20 µM)” were 0.964 and over 20 µM.
Regarding “ES1 (Ewing sarcoma, adherent, top dose 20 µM)”, the AUC was found to be 0.932 and the IC50 was over 20 µM.
In the case of “ES3 (Ewing sarcoma, adherent, top dose 20 µM)”, the AUC came to 0.961 and the IC50 was over 20 µM.
Taken in the same sequence, the figures for “ES4 (Ewing sarcoma, adherent, top dose 20 µM)” were 0.974 and over 20 µM.
In the case of “ES5 (Ewing sarcoma, adherent, top dose 20 µM)”, the AUC was 0.969 and the IC50 is over 20 µM.
As to “ES6 (Ewing sarcoma, adherent, top dose 20 µM)”, the AUC amounted to 0.967 and the IC50 was over 20 µM.
Consider “ES7 (Ewing sarcoma, adherent, top dose 20 µM)”, for which the AUC worked out at 0.924 and the IC50 was over 20 µM.
Taken in the same sequence, the figures for “ES8 (Ewing sarcoma, adherent, top dose 20 µM)” were 0.977 and over 20 µM.
In the case of ES-2 (ovary, adherent, top dose 20 µM), the AUC is 0.991 and the IC50 is over 20 µM.
In the case of “ETK-1 (biliary tract, adherent, top dose 20 µM)”, the AUC is 0.966 and the IC50 is over 20 µM.
Taken in the same sequence, the figures for “EVSA-T (breast, adherent, top dose 20 µM)” were 0.991 and over 20 µM.
In the case of “EW-1 (Ewing sarcoma, semi-adherent, top dose 20 µM)”, the AUC is 0.973 and the IC50 is over 20 µM.
As for “EW-3 (Ewing sarcoma, adherent, top dose 20 µM)”, the AUC turned out to be 0.972 and the IC50 is over 20 µM.
With “EW-7 (Ewing sarcoma, semi-adherent, top dose 20 µM)”, the AUC was found to be 0.972 and the IC50 was over 20 µM.
Consider “EW-11 (Ewing sarcoma, adherent, top dose 20 µM)”, for which the AUC was found to be 0.979 and the IC50 is over 20 µM.
On to “EW-13 (Ewing sarcoma, suspension, top dose 20 µM)”, for which the AUC stood at 0.958 and the IC50 is over 20 µM.
With “EW-16 (Ewing sarcoma, adherent, top dose 20 µM)”, the AUC turned out to be 0.983 and the IC50 was over 20 µM.
For the cell line “EW-18 (Ewing sarcoma, suspension, top dose 20 µM)”, the AUC was 0.976 and the IC50 is over 20 µM.
As for “EW-24 (Ewing sarcoma, semi-adherent, top dose 20 µM)”, the AUC turned out to be 0.993 and the IC50 is over 20 µM.
As for “EoL-1-cell (haematopoietic neoplasm, suspension, top dose 20 µM)”, the AUC was 0.965 and the IC50 is over 20 µM.
Taken in the same sequence, the figures for “FADU (head and neck, adherent, top dose 20 µM)” were 0.979 and over 20 µM.
Taken in the same sequence, the figures for “FU97 (stomach, adherent, top dose 20 µM)” were 0.982 and over 20 µM.
As for “FU-OV-1 (ovary, adherent, top dose 20 µM)”, the AUC is 0.978 and the IC50 is over 20 µM.
Taken in the same sequence, the figures for “Farage (B-cell lymphoma, suspension, top dose 20 µM)” were 0.99 and over 20 µM.
